Consider 25 molecules from PubChem BioAssay AID463173 (ICCB-Longwood Screening Facility, Harvard Medical School, 2010).

Hit rate of the full screen: of about 52,000 compounds, about 4,300 (8.3%) were called active. No stated cut-off is given here; in the data, active means survival mostly below about 52% (no sharp cut-off); inactive means mostly above about 56%. Some of the results follow.

The assay deals with DeltatarO mutant. The experiment in a line: growth inhibition of S. aureus wild type versus tarO mutant, primary screen, teichoic acid synthesis inhibitors, RN4220, OD600 (AID 463173). The conditions noted are these: OD600, 18 h, stronger effect = lower value, screened at 18.75 µg/mL (by protocol).
As for `CNC(=O)c1ccc(CSc2nc3cccnc3n2Cc2cccc(F)c2)cc1`, the survival is inactive: 118%.

On to `N#Cc1ccc(NC(=O)c2cc(-c3cccc(Cl)c3)on2)cc1`, for which the survival was inactive: 71%. For `O=C(Nc1cccc(-c2nc3ccccc3[nH]2)c1)c1ccccc1F` the value was active: 29%; for `Cc1ccsc1CN(C(=O)c1ccc(Br)cc1)C1CCS(=O)(=O)C1` (stereo not given), inactive: 90%. Regarding `Cc1ccc(NC(=O)N2CCN3CCCCC3C2)cc1F` (stereo not given), the survival was inactive: 124%. Regarding `COc1ccccc1CNC(=O)c1ccc2c(c1)nnn2C1CCCC1`, the survival is inactive: 124%. For `COc1ccccc1NC(=O)Cn1cc(C(=O)c2ccncc2)c(=O)c2cc(C)ccc21` the value was inactive: 117%. The result for `COc1ccc(Cl)cc1NC(=O)C1CCN(S(=O)(=O)c2ccc3c(c2)CCCN3C(=O)C2CCC2)CC1` reads inactive: 90%; that for `Cc1cc(=O)[nH]c2nnc(SCC(=O)Nc3ccc(F)cc3F)n12`, inactive: 86%; that for `Cc1ccc(C)c(NC(=O)N2CCc3cc(S(=O)(=O)N4CCC(C)CC4)ccc32)c1`, inactive: 85%. As to `Cc1ccc2nc(-c3cccc(Cl)c3)c(Nc3ccc4c(c3)OCO4)n2c1`, the survival was inactive: 75%. The result for `CN1C(=O)/C(=C2\SC(=S)N(C(CC(=O)O)C(=O)O)C2=O)c2ccccc21` (stereo not given) reads inactive: 79%. The result for `C=CCc1ccccc1OCCn1c(C2CC(=O)N(Cc3ccc(F)cc3)C2)nc2ccccc21` (stereo not given) reads active: 0%.

On to `CC(Oc1ccccc1)C(=O)OCc1cc(=O)n2nc(C(C)C)sc2n1` (stereo not given), for which the survival is inactive: 115%. As to `COc1ccccc1CCNC(=O)C(=O)NCC(c1cccs1)S(=O)(=O)c1ccc(F)cc1` (stereo not given), the survival was inactive: 95%.

`COc1ccccc1C(=O)N1c2ccccc2C(C)(c2ccc(Cl)cc2)CC1(C)C` (stereo not given): the survival is active: 0%. Turning to `COC(=O)CSc1nc2sc3c(c2c(=O)n1Cc1ccccc1)CCC(C(C)(C)C)C3` (stereo not given), the survival is inactive: 66%.

For the molecule `COc1ccc(-c2c3c(nc4sc(C(=O)Nc5ccccc5F)c(N)c24)CC(C)(C)CC3=O)cc1`, the survival is inactive: 135%. The result for `CC(C)NC(=O)C(C)Oc1ccccc1` (stereo not given) reads inactive: 93%; that for `CCc1ccc(CNC(=O)c2nn(-c3ccc(OC)c(Cl)c3)c(=O)c3c2c2ccccc2n3C)cc1`, inactive: 104%; that for `CCN(Cc1ccccc1)C(=O)CN1C(=O)CSc2ccc(S(=O)(=O)N(CC)CC)cc21`, inactive: 87%. As for `COc1ccc(CNn2cnnc2SCc2ccc(F)cc2)cc1OC`, the survival was inactive: 73%. The result for `COc1ccc(NC(=O)c2cc(S(=O)(=O)N3CCCCC3)cn2C)cc1Cl` reads inactive: 78%; that for `O=C(Nc1ccc(S(=O)(=O)N2CCCCC2c2cccnc2)cc1)c1ccc(F)cc1` (stereo not given), inactive: 91%. For `CCc1nnc2c3ccccc3nc(Nc3ccc(F)c(Cl)c3)n12` the value was inactive: 62%.
